The campaign covered roughly 370,000 compounds. About 150 (0.041%) were called active. Inconclusive results, whose numbers are uncertain, are shown with a selection of clear calls. The call rests on the fitted dose curve; in most records, active means well fitted inhibition curve with a large enough effect; inconclusive means small, poorly fitted or top-dose-only effect; inactive means flat fitted curve, though single readings scatter. No potency is given beside an inconclusive call; the fits are too rough.
molecular target: Beta-lactamase (Escherichia coli (strain K12)) (UniProt P00811); assay: qHTS Inhibitors of AmpC Beta-Lactamase (assay with detergent); conditions: AmpC hydrolysis of nitrocefin, absorbance 480 nm, 0.01% Triton; series mostly up to 114 µM; further: nearly all actives have a fitted effect of over 25% in size
Chain of UniProt P00811 (P00811 whole entry, looked up): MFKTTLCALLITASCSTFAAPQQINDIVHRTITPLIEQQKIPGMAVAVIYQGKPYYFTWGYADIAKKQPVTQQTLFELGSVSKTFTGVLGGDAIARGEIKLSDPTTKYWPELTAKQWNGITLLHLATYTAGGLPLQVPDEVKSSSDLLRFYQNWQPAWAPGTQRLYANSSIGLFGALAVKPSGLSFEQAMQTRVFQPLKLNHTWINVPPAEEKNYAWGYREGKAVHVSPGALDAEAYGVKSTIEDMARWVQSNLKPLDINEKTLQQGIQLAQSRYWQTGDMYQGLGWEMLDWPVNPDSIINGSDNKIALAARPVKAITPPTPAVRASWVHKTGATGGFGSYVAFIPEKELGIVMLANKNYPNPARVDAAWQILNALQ
In short: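 20 mM phosphate pH 7.0 + 0.01% (detergent screen) or 0.0001% Triton X-100; 5.3 nM AmpC reagent; cpd preinc 15 min RT; nitrocefin (800 uM stock) to start; A480 q20 s × 4 min; Activity was normalised to no-enzyme and no-compound control wells.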
Potency means the concentration at half of the fitted maximal effect; tags describe the fitted curve by direction and shape.

SMILES	Potency
Cc1cc(C(=O)N2CCCc3ccccc32)ccc1[N+](=O)[O-]	inconclusive [inhibitor, partial curve, poor fit]
Cc1ccc(S(=O)(=O)N(CC2CO2)c2cc(Cl)ccc2Cl)cc1 (configuration not stated)	inconclusive [inhibitor, partial curve]
COc1ccc(CNC(=O)c2c(O)c3cc(OC)c(OC)cc3[nH]c2=O)cc1OC	inactive
O=C1CC(c2ccccc2)c2cc(O)ccc2O1 (configuration not stated)	inconclusive [inhibitor, partial curve, poor fit]
CCC(C)(C)NC(=O)c1ccc2c(c1)N(CC(=O)N1CCCC1)C(=O)C(C)(C)O2	inconclusive [inhibitor, full curve, poor fit]
CCn1cc(C2=NC(C(C)C)CO2)c2ccccc21 (configuration not stated)	inconclusive [inhibitor, partial curve, poor fit]
CC(C)(C)NS(=O)(=O)c1ccc(CCC(=O)NCc2ccccn2)cc1	inactive
Cn1c(SCC(=O)NNC(=O)c2ccc(Br)cc2)nnc1-c1cccnc1	inconclusive [inhibitor, full curve]
CCOC(=O)C1CCCCN1C(=O)CCc1c(C)nc2cc(-c3ccccc3)nn2c1C (configuration not stated)	inconclusive [inhibitor, partial curve]
Cc1cccc(-c2nn(-c3ccccc3)cc2C(=O)N2CCN(C3CCS(=O)(=O)C3)CC2)c1 (configuration not stated)	inactive
CC(c1ccccc1)C1CC(=O)N(C2CCCCC2)C1=O (configuration not stated)	inconclusive [inhibitor, partial curve, poor fit]
COc1ccc(CN2CCNC(=O)C2CC(=O)NCCCn2nnc3ccccc32)cc1C (configuration not stated)	inactive
Cc1onc(-c2ccccc2Cl)c1C(=O)OCC(=O)c1ccc2c(c1)OCCO2	inactive
CC1CN(Cc2nc3c(c(=O)n(C)c(=O)n3C)n2CC(=O)c2ccccc2)CC(C)O1 (configuration not stated)	inconclusive [inhibitor, full curve, poor fit]
COc1ccc(NS(=O)(=O)c2ccc(Cl)c(N)c2)cc1Br	inconclusive [inhibitor, partial curve, poor fit]
COc1ccc(C(=O)NCCS(=O)(=O)NC2CCCC2)cc1	inconclusive [inhibitor, full curve, poor fit]
Cc1ccc(C)c(NS(=O)(=O)c2cc3c4c(c2)CC(=O)N4CCC3)c1	inconclusive [inhibitor, single point]
CCOc1cc(CN2CCCC(N3CCN(c4ccc(F)cc4)CC3)C2)ccc1OC (configuration not stated)	inconclusive [inhibitor, full curve, poor fit]
COc1ccc(CCn2c(C)cc3c(c2=O)C(c2ccc4c(c2)OCO4)C(C#N)=C(N)O3)cc1OC (configuration not stated)	inconclusive [inhibitor, full curve, poor fit]
Cc1ccc(C)c(N2CCN(C(=O)Cn3cnc4onc(-c5ccc(F)cc5)c4c3=O)CC2)c1	inactive
Cc1ccc(-c2nn(Cc3ccccc3)cc2C(=O)N2CCN(c3ccccn3)CC2)cc1	inactive

SMILES	Potency
O=C(Nc1ccccc1F)C1CCCN(S(=O)(=O)c2ccccc2)C1 (configuration not stated)	inconclusive [inhibitor, single point]
CCOC(=O)c1ccc(NC(=O)CN2C(=O)C(CC)SC(CC)C2=O)cc1 (configuration not stated)	inconclusive [inhibitor, full curve, poor fit]
COc1cccc(/C=C/C(=O)c2c(O)cc(C)oc2=O)c1O	inactive
Cc1ccc(-c2cc(C(F)F)n3ncc(C(=O)Nc4ccc(S(=O)(=O)Nc5ccccc5C)cc4)c3n2)cc1	inconclusive [inhibitor, partial curve]
CCOC(=O)c1nn(-c2cccc(OC)c2)c2nc(CC)c(C#N)c(=O)n12	inconclusive [inhibitor, partial curve]
O=C(CSc1nnc(-c2cccnc2)n1Cc1ccco1)c1ccc(Br)cc1	inconclusive [inhibitor, full curve, poor fit]
CCCc1cc2c(=O)n(NC(=O)c3nn(C)cc3[N+](=O)[O-])c(C)nc2s1	inconclusive [inhibitor, full curve, poor fit]
CC(OC(=O)CSc1ccccc1)C(=O)NC1CCCCC1C (configuration not stated)	inactive
O=C(NCc1ccc(Cl)cc1)c1noc2c1CCCCC2	inactive
CC1CCN(S(=O)(=O)c2ccc3c(c2)n(C)c(=O)n3C)CC1	inconclusive [inhibitor, full curve]
N#C/C(=C\c1ccc(/C=C(/C#N)c2nn(CCO)c(N)c2C#N)cc1)c1nn(CCO)c(N)c1C#N	inconclusive [inhibitor, full curve]
COc1cccc(NC(=O)CS(=O)(=O)c2cccc3nsnc23)c1	inconclusive [inhibitor, full curve, poor fit]
COc1ccc(CCn2c(C)cc(C(=O)COC(=O)c3cnc(C)cn3)c2C)cc1	inconclusive [inhibitor, full curve, poor fit]
CCOc1ccc(OCC)c(NC(=O)c2cc(S(=O)(=O)N3CCc4ccccc43)cn2C)c1	inactive
CCOc1ccc2ncc3c(-c4ccc(C)cc4)nn(-c4cccc(F)c4)c3c2c1	inactive
Cc1cc2c(=O)n(CC(=O)NCC(=O)Nc3ccc(C(C)C)cc3)cnc2s1	inconclusive [inhibitor, partial curve]
COc1ccc(OC)c(NC(=S)N2c3ccccc3CC2C)c1 (configuration not stated)	inactive
CC(C)(CC(=O)O)CC(=O)O	inconclusive [inhibitor, full curve, poor fit]
NC(=O)c1sc2nc3c(c(-c4cccnc4)c2c1N)CCC3	inconclusive [inhibitor, single point]
Cc1ccc(C(=O)NCCN2CCNC2=O)cc1	inactive
CCOC(=O)NC1(C(F)(F)F)C(=O)NC(C)=C1C(=O)OC (configuration not stated)	inconclusive [inhibitor, partial curve, poor fit]

From PubChem BioAssay AID485294 (National Center for Advancing Translational Sciences (NCATS), 2010)
